About 14,000 (4.5%) of roughly 310,000 compounds showed an effect of 50% or more. Effects have a minus sign here. Some of the results follow.
The molecules below were run against human ether-à-go-go-related gene (hERG) potassium channel (human, UniProt Q12809) (assay: primary screen, population patch clamp on CHO cells stably expressing hERG).
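Further: peak tail current of the secondary pulse compared with the same well before compound.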

Chain of human ether-à-go-go-related gene (hERG) potassium channel (Q12809 whole entry, looked up): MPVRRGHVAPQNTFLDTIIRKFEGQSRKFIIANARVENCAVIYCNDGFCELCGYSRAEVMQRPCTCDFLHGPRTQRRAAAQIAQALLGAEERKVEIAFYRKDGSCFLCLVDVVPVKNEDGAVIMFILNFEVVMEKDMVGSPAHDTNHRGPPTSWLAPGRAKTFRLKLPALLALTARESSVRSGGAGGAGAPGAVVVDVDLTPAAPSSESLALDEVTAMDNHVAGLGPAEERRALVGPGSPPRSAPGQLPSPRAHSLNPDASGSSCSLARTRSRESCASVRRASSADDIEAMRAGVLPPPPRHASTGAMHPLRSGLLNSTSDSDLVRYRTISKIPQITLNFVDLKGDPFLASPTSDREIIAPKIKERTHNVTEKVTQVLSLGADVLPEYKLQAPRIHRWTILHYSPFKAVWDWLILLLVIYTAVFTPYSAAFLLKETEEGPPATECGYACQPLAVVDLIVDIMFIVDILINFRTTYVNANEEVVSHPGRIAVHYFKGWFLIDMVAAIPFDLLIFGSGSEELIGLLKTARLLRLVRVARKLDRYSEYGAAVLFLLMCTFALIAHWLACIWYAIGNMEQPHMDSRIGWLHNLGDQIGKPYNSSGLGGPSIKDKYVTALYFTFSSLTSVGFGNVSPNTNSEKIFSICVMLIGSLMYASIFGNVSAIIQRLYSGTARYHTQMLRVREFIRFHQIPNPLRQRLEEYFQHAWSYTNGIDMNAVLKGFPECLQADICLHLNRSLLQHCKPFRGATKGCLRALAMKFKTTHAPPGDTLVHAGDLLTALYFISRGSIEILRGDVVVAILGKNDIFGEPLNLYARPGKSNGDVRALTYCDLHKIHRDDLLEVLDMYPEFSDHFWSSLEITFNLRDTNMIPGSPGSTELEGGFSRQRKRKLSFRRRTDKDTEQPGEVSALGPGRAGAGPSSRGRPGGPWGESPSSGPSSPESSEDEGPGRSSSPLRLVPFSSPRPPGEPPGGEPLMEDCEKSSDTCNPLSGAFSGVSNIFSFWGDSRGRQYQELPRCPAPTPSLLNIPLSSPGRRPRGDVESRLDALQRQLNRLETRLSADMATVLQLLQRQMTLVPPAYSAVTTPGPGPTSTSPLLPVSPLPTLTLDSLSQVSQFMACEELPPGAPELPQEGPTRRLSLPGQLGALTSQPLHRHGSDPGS

Question: For `Cc1c(C(=O)N/N=C/c2ccccn2)nnn1-c1nonc1N`, which “hERG current change (%, negative = inhibition) at 10uM” value is on record?
Answer: -15.6%

Question: `Cc1cc(Nc2ccccc2C(=O)O)n(-c2cccc(Cl)c2)n1` was tested. Which “hERG current change (%, negative = inhibition) at 10uM” value did it give?
Answer: 14.6%

Question: `COc1ccc(/C=C/C2=NN(Cc3ccccc3)C(=O)CC2)cc1` was tested. Which “hERG current change (%, negative = inhibition) at 10uM” value did it give?
Answer: -15.5%

Question: With `Cn1ncc([N+](=O)[O-])c1C(=O)N/N=C/c1cccc([N+](=O)[O-])c1` as the molecule, how does the “hERG current change (%, negative = inhibition) at 10uM” value read?
Answer: 11.5%

Question: `COc1cc(Cl)cc(NC(=O)CCN2CCN(C)CC2)c1` was tested. Which “hERG current change (%, negative = inhibition) at 10uM” value did it give?
Answer: -37%

Question: `COC(=O)c1c(N2C(=O)CCC2=O)sc2c1CCCC2` was tested. Which “hERG current change (%, negative = inhibition) at 10uM” value did it give?
Answer: 1.42%

Question: For `Cc1ccc(C2(C)NC(=O)N(CC(=O)Nc3ccccc3C(=O)N3CCCCC3)C2=O)cc1` (centres unmarked), which “hERG current change (%, negative = inhibition) at 10uM” value is on record?
Answer: 6.74%

Question: How did the “hERG current change (%, negative = inhibition) at 10uM” value turn out when `Cc1cc(NS(=O)(=O)c2ccc(NC(=O)COc3ccccc3C(C)(C)C)cc2)no1` was run?
Answer: 11.3%

Question: With `CC1=C(C(=O)Nc2ccccc2)C(c2ccccc2)N2C(=O)CSC2=N1` (centres unmarked) as the molecule, how does the “hERG current change (%, negative = inhibition) at 10uM” value read?
Answer: 3.09%

Question: `CCOc1ccc(Br)cc1S(=O)(=O)N1CCC(C(N)=O)CC1` was tested. Which “hERG current change (%, negative = inhibition) at 10uM” value did it give?
Answer: -8.56%

Question: With `COc1c(F)c(F)c(C(=O)O)c(Nc2ccc(C)cc2C)c1F` as the molecule, how does the “hERG current change (%, negative = inhibition) at 10uM” value read?
Answer: 18.8%

Question: With `Cc1ccccc1NC(=O)c1ccc2snnc2c1` as the molecule, how does the “hERG current change (%, negative = inhibition) at 10uM” value read?
Answer: -10.6%

Question: For `CC1CCCC1/C(=N/O)c1ccccc1` (centres unmarked), which “hERG current change (%, negative = inhibition) at 10uM” value is on record?
Answer: 7.75%

Question: `CCn1c(SCc2ccccc2Cl)nc2ccccc21` was tested. Which “hERG current change (%, negative = inhibition) at 10uM” value did it give?
Answer: -8.43%

Question: With `Cn1c(N2CCOCC2)c(C=O)c2ccccc21` as the molecule, how does the “hERG current change (%, negative = inhibition) at 10uM” value read?
Answer: -12.9%

Question: Which “hERG current change (%, negative = inhibition) at 10uM” value does the source give for `COCCNc1ncnc2c1cnn2Cc1ccccc1Cl` here?
Answer: 11.3%

Question: For `CCN(CC)S(=O)(=O)c1ccc(C)c(NC(=S)N2CCN(Cc3ccc4c(c3)OCO4)CC2)c1`, which “hERG current change (%, negative = inhibition) at 10uM” value is on record?
Answer: -13.4%

Question: How did the “hERG current change (%, negative = inhibition) at 10uM” value turn out when `COC(=O)c1cccc(NC(=O)CCN2C(=O)C3CC=CCC3C2=O)c1` (centres unmarked) was run?
Answer: -0.0493%

Question: With `O=C(Nc1ccc(N2CCOCC2)cc1N1CCOCC1)c1ncoc1-c1cccc(F)c1` as the molecule, how does the “hERG current change (%, negative = inhibition) at 10uM” value read?
Answer: -9.18%

Question: Which “hERG current change (%, negative = inhibition) at 10uM” value does the source give for `COCCNC(=O)c1ccc2c(=O)n(CCOC)c(=O)[nH]c2c1` here?
Answer: 13.6%

Question: For `COC(=O)Cc1ccc(NC(=S)Nc2ccc(N3CCOCC3)cc2)cc1`, which “hERG current change (%, negative = inhibition) at 10uM” value is on record?
Answer: -7.44%

Question: `COc1cc2nc(C3CCC3)n(NC(=O)C3CCCC(OC)C3)c(=O)c2cc1OC` (centres unmarked) was tested. Which “hERG current change (%, negative = inhibition) at 10uM” value did it give?
Answer: -4.82%

Question: `CSc1nc(C)c(C(=O)Nc2ccccc2)c(C)c1C#N` was tested. Which “hERG current change (%, negative = inhibition) at 10uM” value did it give?
Answer: 3.21%

Question: `COC(=O)c1ccc(CNC(=O)COC(=O)c2ccc(N(C)C)cc2)cc1` was tested. Which “hERG current change (%, negative = inhibition) at 10uM” value did it give?
Answer: 30.3%

Question: `CC(C)n1c(=O)c(C=Nc2ccc(Cl)cc2)c(O)n(Cc2ccco2)c1=O` was tested. Which “hERG current change (%, negative = inhibition) at 10uM” value did it give?
Answer: -5.75%

Question: Which “hERG current change (%, negative = inhibition) at 10uM” value does the source give for `O=C(COC(=O)/C=C/c1cccs1)NC1CCCCC1` here?
Answer: -6.27%

Question: For `CCCn1c(-c2cc(OC)c(OC)c(OC)c2)nc2nc3ccccc3nc21`, which “hERG current change (%, negative = inhibition) at 10uM” value is on record?
Answer: -37.5%

Question: `CCOC(=O)c1c(C)oc2c(CN3CCN(C)CC3)c(Br)c(OC)c(O)c12.Cl` was tested. Which “hERG current change (%, negative = inhibition) at 10uM” value did it give?
Answer: -26.2%

Question: With `Cc1cc(C(=O)CSc2n[nH]c(-c3ccccc3F)n2)c(C)n1Cc1cccs1` as the molecule, how does the “hERG current change (%, negative = inhibition) at 10uM” value read?
Answer: 4.84%

Question: Which “hERG current change (%, negative = inhibition) at 10uM” value does the source give for `CC(=O)OC1(c2ccccc2)CCN(C)C(C)C1C.Cl` (centres unmarked) here?
Answer: 11.8%

Question: For `Cc1cc(C(=O)Nc2ccccn2)cs1`, which “hERG current change (%, negative = inhibition) at 10uM” value is on record?
Answer: 3.35%

Question: `COc1ccc(C2N=C(N)N=C(N)N2c2ccc(C)cc2)cc1.Cl` (centres unmarked) was tested. Which “hERG current change (%, negative = inhibition) at 10uM” value did it give?
Answer: -1.45%

Question: With `CCOC(=O)CNC(=O)N1CCCC(CNS(=O)(=O)c2cccs2)C1` (centres unmarked) as the molecule, how does the “hERG current change (%, negative = inhibition) at 10uM” value read?
Answer: 45.9%

Question: With `CCN(CC)CC.CN1C=CC=C/C1=C1\SC(=S)N(CC(=O)O)C1=O` as the molecule, how does the “hERG current change (%, negative = inhibition) at 10uM” value read?
Answer: 11.6%

Question: Which “hERG current change (%, negative = inhibition) at 10uM” value does the source give for `O=C(Nc1cccc2ccccc12)NC1CCCc2ccccc21` (centres unmarked) here?
Answer: 12.1%

Question: For `O=C(Nc1cccc([N+](=O)[O-])c1)c1ccc2nsnc2c1`, which “hERG current change (%, negative = inhibition) at 10uM” value is on record?
Answer: -8.11%

Question: `Cc1ccc(C(=O)CSc2cc(C)[nH]c(=O)n2)cc1` was tested. Which “hERG current change (%, negative = inhibition) at 10uM” value did it give?
Answer: 6.76%

Question: Which “hERG current change (%, negative = inhibition) at 10uM” value does the source give for `COc1cc(O)c(C(CC(=O)N2CCOCC2)c2ccc(N(C)C)cc2)c(OC)c1` (centres unmarked) here?
Answer: 19.2%

Question: For `O=C(c1ccc(O)cc1)c1ccc(Cl)cc1`, which “hERG current change (%, negative = inhibition) at 10uM” value is on record?
Answer: -19%

Question: Which “hERG current change (%, negative = inhibition) at 10uM” value does the source give for `COc1ccccc1/C=C1\Oc2cc(OC(=O)N3CCOCC3)ccc2C1=O` here?
Answer: 20.4%

Question: Which “hERG current change (%, negative = inhibition) at 10uM” value does the source give for `Cn1cccc1Cc1nnc(SCC(=O)N2CCCCCC2)n1-c1ccc(F)cc1` here?
Answer: -7.3%

Question: `COCCCNC(=O)C1CCN(c2nc(C)cc(C)n2)CC1` was tested. Which “hERG current change (%, negative = inhibition) at 10uM” value did it give?
Answer: 5.94%

Question: `O=C(c1ccc(S(=O)(=O)N2CCc3ccccc3C2)cc1)N1CCCCC1` was tested. Which “hERG current change (%, negative = inhibition) at 10uM” value did it give?
Answer: -22.2%

Question: `COc1cc(/C=C\C(=O)OCn2nnc3ccccc3c2=O)cc(OC)c1OC` was tested. Which “hERG current change (%, negative = inhibition) at 10uM” value did it give?
Answer: -6.44%

Source: article PMC4336329 (PLoS ONE, 2015)
